Measured values as given in US20180362645A1.

Target: hPAC1 short (hPAC1 with amino acid residues 89-109 deleted) (human), P41586
Experiment: cell-based or functional assay

Sequence of hPAC1 short (hPAC1 with amino acid residues 89-109 deleted) (human), P41586 (P41586 other isoform, or with tags, fused parts or gaps, form in doubt): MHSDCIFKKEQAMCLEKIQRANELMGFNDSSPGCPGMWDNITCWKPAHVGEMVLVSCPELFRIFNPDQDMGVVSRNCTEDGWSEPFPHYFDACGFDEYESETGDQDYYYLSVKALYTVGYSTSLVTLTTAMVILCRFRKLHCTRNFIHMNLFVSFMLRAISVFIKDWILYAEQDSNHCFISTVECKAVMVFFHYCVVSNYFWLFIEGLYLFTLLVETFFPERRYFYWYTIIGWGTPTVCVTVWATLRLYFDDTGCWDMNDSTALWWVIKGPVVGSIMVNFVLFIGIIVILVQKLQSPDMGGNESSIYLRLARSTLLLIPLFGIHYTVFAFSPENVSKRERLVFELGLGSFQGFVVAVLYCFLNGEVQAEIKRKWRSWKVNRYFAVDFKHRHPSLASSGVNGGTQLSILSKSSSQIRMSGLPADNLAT

short hPAC1 IC50 (cAMP assay): 4.7 nM
B1: 29B (antibody, human IgG1, kappa)
heavy: QVQLVESGGGVVQPGRSLRLSCAASGFTFSRYAMHWVRQASGKGLEWVAVISYDGSNKYYADSVKGRFTISRDNSKNTLYLLMSSLRAEDTAVFYCARGYDILTGYPDYWGQGTLVTVSSASTKGPSVFPLAPSSKSTSGGTAALGCLVKDYFPEPVTVSWNSGALTSGVHTFPAVLQSSGLYSLSSVVTVPSSSLGTQTYICNVNHKPSNTKVDKKV[no letters for human IgG1 Fc with changes]
light: DIQLTQSPSFLSASVGDRVTITCRASQSIGRSLHWYQQKPGKAPKLLFKYASQSLSGVPSRFSGSGSGTEFTLTISSLQPEDFATYYCHQSSRLPFTFGPGTKVDIKRTVAAPSVFIFPPSDEQLKSGTASVVCLLNNFYPREAKVQWKVDNALQSGNSQESVTEQDSKDSTYSLSSTLTLSKADYEKHKVYACEVTHQGLSSPVTKSFNRGEC
